# Test results from PubChem BioAssay AID686978 (National Center for Advancing Translational Sciences (NCATS), 2013).
# Where “and” joins values, the source holds several entries; their conditions need not be identical. Identical values can stand only once. In all, about 420,000 compounds went through this assay and about 64,000 (15%) were called active. The shares of active, inactive and inconclusive entries below differ from those in the screen. Calls come from the whole dose curve; as a rule, active = well fitted inhibition curve with a large enough effect; inconclusive = small, poorly fitted or top-dose-only effect; inactive = flat fitted curve, though single readings scatter. A potency beside an inconclusive call is a rough fit, not a confirmed value.
# Test: qHTS for Inhibitors of human tyrosyl-DNA phosphodiesterase 1 (TDP1): qHTS in cells in absence of CPT; note: nearly all actives have a fitted effect of over 55% in size
# Conditions: DT40 Tdp1-/- hTDP1 cells, no CPT, ATP luminescence, 48 h; activity change, negative = growth inhibition: at 46.2 µM (top of the series) unless noted
# Method in brief: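 Seeded 400 DT40-hTDP1 cells/well (vehicle DMSO, no 20 nM CPT); pinned compounds; ≥48 hr at 37 °C; CellTiter-Glo luminescence as viability measure.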
# % is set by controls: 0 for no effect and ±100 for the full control effect; potency is the fitted concentration of half-maximal effect; tags give direction and shape of the fitted curve.
Compound,"activity change, negative = growth inhibition",Potency
C=CCSc1ncc(C#N)c(N)n1,inactive: -28.8%,
Cn1c(SCC(=O)N2CCOCC2)nc2c(c1=O)SCC2,inactive: -9.8%,
CCOc1ccc(CC(=O)NCCS(=O)(=O)N2CCN(c3ccccc3)CC2)cc1,,"inconclusive: 6.51 µM [inhibitor, full curve, poor fit]"
Cn1cc(-c2cc3n(n2)CCC(=O)N3CCCC(=O)NCc2ccc(Cl)cc2)c2ccccc21,,"inconclusive: 20.6 µM [inhibitor, single point]"
O=C(CCCn1c(=O)c2cccn2c2ccccc21)Nc1cc(C(F)(F)F)ccc1Cl,,"inconclusive: 23.1 µM [inhibitor, single point]"
Cc1ccc(N2CC(c3nc4ccccc4n3C)CC2=O)cc1C (configuration not stated),,"inconclusive: 29.1 µM [inhibitor, single point]"
COc1cc(/C=N/NC(=O)c2cc(-c3cccc(Br)c3)nc3ccccc23)cc(OC)c1O,,"inconclusive: 2.06 µM [inhibitor, partial curve, poor fit]"
O=C(O)CCc1ccc(-c2ccc(Cl)cc2)n1CCC(=O)O,inactive: 8.13%,
CCOc1ccccc1NC(=O)CN1C(=O)COc2ccc(S(=O)(=O)N3CCOCC3)cc21,,"inconclusive: 29.1 µM [inhibitor, single point]"
CSc1cc(C)nc(NC(C)=O)n1,inactive: 0.0659%,
N#CCC(=O)N1CCN(Cc2ccc3c(c2)OCO3)CC1,inactive: -6.28%,
Cc1ccc(O)c(Nc2nc(-c3ccccc3)nc3ccccc23)c1,inactive: -4.21%,
COc1ccc(Cn2c(CCC(=O)Nc3cc(OC)c(OC)c(OC)c3)nc3cccnc32)cc1,,"inconclusive: 16.4 µM [inhibitor, single point]"
O=C(Cn1cc([N+](=O)[O-])nc1[N+](=O)[O-])N1CCN(c2ccccc2)CC1,,"inconclusive: 29.1 µM [inhibitor, single point]"
O=C(CSc1nccn1Cc1ccccc1)NCc1ccco1,inactive: 3.3%,
CCn1c(COc2ccc(Cl)cc2)nnc1SCC(=O)Nc1ccc2c(c1)OCO2,,"inconclusive: 29.1 µM [inhibitor, single point]"
Cc1csc(-c2nc3ccccc3n2C(C(=O)Nc2c(C)cccc2C)C2CC2)c1 (configuration not stated),,"inconclusive: 23.1 µM [inhibitor, single point]"
O=C(Nc1nnc(C2CC2)o1)c1ccc(S(=O)(=O)N2CCCc3ccccc32)cc1,,"inconclusive: 10.3 µM [inhibitor, partial curve, poor fit]"
COC(=O)c1ccc(N2CCCCC2)c(NS(=O)(=O)c2ccc(C)cc2)c1,,"inconclusive: 29.1 µM [inhibitor, single point]"
COc1cc(C)ccc1OC(C)C(=O)Nc1ccc(N2CCCCC2)cc1 (configuration not stated),,active: 13 µM
COc1c(C)cc(C(O)c2ncc(-c3ccc(C(F)(F)F)cc3)[nH]2)cc1C (configuration not stated),,"inconclusive: 23.1 µM [inhibitor, single point]"
COc1nc(C#N)nc(N(C)C)n1,,"inconclusive: 22.4 µM [inhibitor, single point]"
COc1ccc(C2c3c(-c4ccccc4O)n[nH]c3C(=O)N2CCc2ccc(OC)c(OC)c2)cc1 (configuration not stated),,active: 23.1 µM
COc1ccc(-c2ccc(CCC(=O)O)n2CC(C)C)cc1,,active: 20.6 µM

Compound,"activity change, negative = growth inhibition",Potency
Cc1cccc(-n2c(SCC(=O)Nc3ncc(Cl)cc3Cl)nc3ccccc32)c1,,"inconclusive: 29.1 µM [inhibitor, single point]"
CS(=O)(=O)Nc1nnc(Cc2ccccc2)s1,inactive: -0.214%,
Cc1ccc(-n2c(SCC(=O)N/N=C/C=C/c3ccccc3[N+](=O)[O-])nc3ccccc3c2=O)cc1,,"inconclusive: 7.31 µM [inhibitor, partial curve, poor fit]"
COc1cc(C(=O)NNC(=O)CN2C(=O)NC3(CCCC3)C2=O)cc(OC)c1OC,inactive: 4.78%,
Cc1cc(C)n(C(C)CC(=O)Nc2cccc(C(F)(F)F)c2)n1 (configuration not stated),,"inconclusive: 18.4 µM [inhibitor, single point]"
O=C(COc1cccc2cccnc12)N1CCc2ccccc2C1,,"inconclusive: 35.5 µM [inhibitor, single point]"
CCCCCOc1ccc(Br)cc1/C(C)=N/NC1=NCCN1,,active: 4.61 µM
CCCOc1ccc(C(O)(CCN2CCCCC2)c2ccccc2OC)cc1 (configuration not stated),,active: 14.6 µM
Cc1ccc(S(=O)(=O)Nc2ccc(Cl)cc2O)cc1,,"inconclusive: 29.1 µM [inhibitor, single point]"
O=C(c1cccc(NC2=NC3CS(=O)(=O)CC3S2)c1)N1CCN(c2cccc(Cl)c2)CC1 (configuration not stated),,"inconclusive: 29.1 µM [inhibitor, single point]"
CCN(c1ccccc1)S(=O)(=O)c1ccc(NC(=O)c2nc(SC)ncc2Cl)cc1,,active: 20.6 µM
O=C(CCC(=O)N1CCN(c2ccc(F)cc2)CC1)c1ccc(F)cc1,,"inconclusive: 16.4 µM [inhibitor, partial curve]"
COc1cccc(NC(=O)N(C2CCCCC2)C(C)c2cccs2)c1 (configuration not stated),,active: 12.6 µM
COC(=O)C1(Cc2ccc3c(c2)CCC3)Cc2ccc3c(c2C1=O)CCC3 (configuration not stated),,"inconclusive: 20.6 µM [inhibitor, single point]"
CCOc1ccc(C(c2nnnn2Cc2ccccc2)N2CCN(C(=O)c3ccco3)CC2)cc1 (configuration not stated),,"inconclusive: 25.9 µM [inhibitor, single point]"
O=C(C=C=Nc1ccccc1)C(=O)N=C=Cc1ccccc1,,active: 4.61 µM
Cc1ccc(CN(C)c2ccc(S(=O)(=O)N3CCCC3)cn2)cc1,,"inconclusive: 25.9 µM [inhibitor, single point]"
O=C(NCc1cccnc1)C(=O)NCC1OCCN1S(=O)(=O)c1ccc(Cl)cc1 (configuration not stated),,"inconclusive: 29.1 µM [inhibitor, single point]"
COc1ccc(Br)cc1-c1nc2c(c(=O)[nH]c(=O)n2Cc2ccccc2)n1C,,"inconclusive: 8.2 µM [inhibitor, partial curve]"
CCCCCc1ccc(-c2cn(CCc3c[nH]c4ccccc34)nn2)cc1,,"inactive and inconclusive: 3.55 µM [inhibitor, partial curve, poor fit]"
COc1ccccc1C(=O)NCCC(=O)N(C)Cc1ccc(C)o1,inactive: 15.9%,
CN(C)S(=O)(=O)N1CCC(Oc2ccc(C(=O)NC3CCCCC3)cc2)CC1,,"inconclusive: 20.6 µM [inhibitor, single point]"
CCOC(=O)c1cc(CC)sc1N1C(=O)CC(Sc2ccccc2C(=O)O)C1=O (configuration not stated),,active: 4.11 µM
Cc1ccc(NC(=O)c2n[nH]c(=O)c3ccccc23)cc1S(=O)(=O)N1CCOCC1,,"inconclusive: 29.1 µM [inhibitor, single point]"

Compound,"activity change, negative = growth inhibition",Potency
C=CCn1c2c(c3ccccc31)CCC2,inactive: -24.3%,
CCc1ccccc1NC(=O)CSc1nc(-c2cccc(Cl)c2)nc2c1Cc1c(CO)cnc(C)c1O2,inactive: -3.56%,
Cc1ccc(S(=O)(=O)N2CCC(=O)N(C(CO)C(C)C)CC2)cc1 (configuration not stated),inactive: -4.83%,
O=C(CN(C(=O)C1CSC(=O)C1)c1cccc(F)c1)NCc1ccc2c(c1)OCO2 (configuration not stated),inactive: -21.7%,
Cc1ccccc1NC(=O)Cc1nc(COC(=O)C(C)(C)Oc2ccc(Cl)cc2)cs1,,"inconclusive: 29.1 µM [inhibitor, single point]"
OCCNc1nc2ccccc2n1-c1ncnc2sc3c(c12)CCC3,,active: 20.6 µM
CCc1ccccc1NC(=O)CNC(=O)CSC(=S)N1CCCC1,inactive: 1.43%,
CCOC(=O)c1ccc(NC(=O)CC2C(=O)N(c3ccc(F)cc3)C(=O)N2Cc2cccnc2)cc1 (configuration not stated),,active: 14.6 µM
Cc1c(OCC(=O)Nc2cccnc2)ccc2c3c(c(=O)oc12)CCC3,,"inconclusive: 20.6 µM [inhibitor, single point]"
CC1CCN(C(=O)Cn2c(=O)n(CC3CCC(C(=O)NC(C)C)CC3)c(=O)c3sccc32)CC1 (configuration not stated),inactive: -23.1%,
COc1ccc(-c2cn[nH]c2-c2ccc(OCC(=O)NN)cc2O)cc1OC,,"inconclusive: 29.1 µM [inhibitor, single point]"
CCCc1[nH]nc2c1C(c1ccccc1OCC)C(C#N)=C(N)O2 (configuration not stated),inactive: -9.86%,
O=c1ccc(-c2ccc(S(=O)(=O)Nc3ccccc3Cl)o2)n[nH]1,inactive: 13.3%,
O=C(OCc1ccc(Br)cc1)c1cc([N+](=O)[O-])ccc1N1CCOCC1,,active: 0.461 µM
Cc1cc(C)cc(OCC(=O)Nc2ccc(S(=O)(=O)Nc3ccccn3)cc2)c1,inactive: -19.5%,
O=C(/C(=C/c1ccc(Cl)cc1)c1nc2ccccc2[nH]1)c1ccccc1,,active: 7.31 µM
CCOC(=O)C1(Cc2ccccc2)CCN(Cc2nccn2CC)CC1,,"inconclusive: 23.1 µM [inhibitor, single point]"
Cc1cc2cc(CN(Cc3cccs3)C(=S)NCc3ccco3)c(=O)[nH]c2cc1C,,"inconclusive: 29.1 µM [inhibitor, single point]"
O=C(CNc1cccc(S(=O)(=O)N2CCCC2)c1)Nc1cccc(C(F)(F)F)c1,,active: 11.6 µM
COc1ccc(-c2nc(SCC(=O)NC3CCCC3)c(-c3ccc(F)cc3)[nH]2)cc1,,"inconclusive: 23.1 µM [inhibitor, single point]"
Nn1c(SCC(=O)Nc2ccc3c(c2)OCO3)nncc1=O,inconclusive: -35.2% [inhibitor],
CCN1CCN(C(=O)c2cc3cc(F)ccc3[nH]2)CC1,inactive: -29.3%,
CCN1CCN(c2ccc(N3CCN(S(=O)(=O)c4cc([N+](=O)[O-])ccc4C)CC3)nn2)CC1,,"inconclusive: 29.1 µM [inhibitor, single point]"
CS(=O)(=O)Nc1ccc(C2=NN(C(=O)c3cccc(F)c3)C(c3cccs3)C2)cc1 (configuration not stated),,"inconclusive: 23.1 µM [inhibitor, single point]"
